# Reference: the supplement of paper PMC12423691
# This is one part of the list. Binding of human transcription factors and regulators to the viral nucleoprotein by AlphaScreen, crude cell-free proteins, amounts not normalised, one pass. Fold of the Venus control; higher = more signal. No active / inactive call. Single-pass screen; sequences are the whole Swiss-Prot entries looked up by name.
# B1: PTTG1, O95997 (protein)
# chain: MATLIYVDKENGEPGTRVVAKDGLKLGSGPSIKALDGRSQVSTPRFGKTFDAPPALPKATRKALGTVNRATEKSVKTKGPLKQKQPSFSAKKMTEKTVKAKSSVPASDDAYPEIEKFFPFNPLDFESFDLPEEHQIAHLPLSGVPLMILDEERELEKLFQLGPPSPVKMPSPPWESNLLQSPSSILSTLDVELPPVCCDIDI
# B2: UFL1, O94874 (protein)
# chain: MADAWEEIRRLAADFQRAQFAEATQRLSERNCIEIVNKLIAQKQLEVVHTLDGKEYITPAQISKEMRDELHVRGGRVNIVDLQQVINVDLIHIENRIGDIIKSEKHVQLVLGQLIDENYLDRLAEEVNDKLQESGQVTISELCKTYDLPGNFLTQALTQRLGRIISGHIDLDNRGVIFTEAFVARHKARIRGLFSAITRPTAVNSLISKYGFQEQLLYSVLEELVNSGRLRGTVVGGRQDKAVFVPDIYSRTQSTWVDSFFRQNGYLEFDALSRLGIPDAVSYIKKRYKTTQLLFLKAACVGQGLVDQVEASVEEAISSGTWVDIAPLLPTSLSVEDAAILLQQVMRAFSKQASTVVFSDTVVVSEKFINDCTELFRELMHQKAEKEMKNNPVHLITEEDLKQISTLESVSTSKKDKKDERRRKATEGSGSMRGGGGGNAREYKIKKVKKKGRKDDDSDDESQSSHTGKKKPEISFMFQDEIEDFLRKHIQDAPEEFISELAEYLIKPLNKTYLEVVRSVFMSSTTSASGTGRKRTIKDLQEEVSNLYNNIRLFEKGMKFFADDTQAALTKHLLKSVCTDITNLIFNFLASDLMMAVDDPAAITSEIRKKILSKLSEETKVALTKLHNSLNEKSIEDFISCLDSAAEACDIMVKRGDKKRERQILFQHRQALAEQLKVTEDPALILHLTSVLLFQFSTHSMLHAPGRCVPQIIAFLNSKIPEDQHALLVKYQGLVVKQLVSQSKKTGQGDYPLNNELDKEQEDVASTTRKELQELSSSIKDLVLKSRKSSVTEE
# B3: FOXA2, Q9Y261 (protein)
# chain: MLGAVKMEGHEPSDWSSYYAEPEGYSSVSNMNAGLGMNGMNTYMSMSAAAMGSGSGNMSAGSMNMSSYVGAGMSPSLAGMSPGAGAMAGMGGSAGAAGVAGMGPHLSPSLSPLGGQAAGAMGGLAPYANMNSMSPMYGQAGLSRARDPKTYRRSYTHAKPPYSYISLITMAIQQSPNKMLTLSEIYQWIMDLFPFYRQNQQRWQNSIRHSLSFNDCFLKVPRSPDKPGKGSFWTLHPDSGNMFENGCYLRRQKRFKCEKQLALKEAAGAAGSGKKAAAGAQASQAQLGEAAGPASETPAGTESPHSSASPCQEHKRGGLGELKGTPAAALSPPEPAPSPGQQQQAAAHLLGPPHHPGLPPEAHLKPEHHYAFNHPFSINNLMSSEQQHHHSHHHHQPHKMDLKAYEQVMHYPGYGSPMPGSLAMGPVTNKTGLDASPLAADTSYYQGVYSRPIMNSS
# B4: NFATC1, O95644 (protein)
# chain: MPSTSFPVPSKFPLGPAAAVFGRGETLGPAPRAGGTMKSAEEEHYGYASSNVSPALPLPTAHSTLPAPCHNLQTSTPGIIPPADHPSGYGAALDGGPAGYFLSSGHTRPDGAPALESPRIEITSCLGLYHNNNQFFHDVEVEDVLPSSKRSPSTATLSLPSLEAYRDPSCLSPASSLSSRSCNSEASSYESNYSYPYASPQTSPWQSPCVSPKTTDPEEGFPRGLGACTLLGSPRHSPSTSPRASVTEESWLGARSSRPASPCNKRKYSLNGRQPPYSPHHSPTPSPHGSPRVSVTDDSWLGNTTQYTSSAIVAAINALTTDSSLDLGDGVPVKSRKTTLEQPPSVALKVEPVGEDLGSPPPPADFAPEDYSSFQHIRKGGFCDQYLAVPQHPYQWAKPKPLSPTSYMSPTLPALDWQLPSHSGPYELRIEVQPKSHHRAHYETEGSRGAVKASAGGHPIVQLHGYLENEPLMLQLFIGTADDRLLRPHAFYQVHRITGKTVSTTSHEAILSNTKVLEIPLLPENSMRAVIDCAGILKLRNSDIELRKGETDIGRKNTRVRLVFRVHVPQPSGRTLSLQVASNPIECSQRSAQELPLVEKQSTDSYPVVGGKKMVLSGHNFLQDSKVIFVEKAPDGHHVWEMEAKTDRDLCKPNSLVVEIPPFRNQRITSPVHVSFYVCNGKRKRSQYQRFTYLPANVPIIKTEPTDDYEPAPTCGPVSQGLSPLPRPYYSQQLAMPPDPSSCLVAGFPPCPQRSTLMPAAPGVSPKLHDLSPAAYTKGVASPGHCHLGLPQPAGEAPAVQDVPRPVATHPGSPGQPPPALLPQQVSAPPSSSCPPGLEHSLCPSSPSPPLPPATQEPTCLQPCSPACPPATGRPQHLPSTVRRDESPTAGPRLLPEVHEDGSPNLAPIPVTVKREPEELDQLYLDDVNEIIRNDLSSTSTHS
# B5: NFIL3, Q16649 (protein)
# chain: MQLRKMQTVKKEQASLDASSNVDKMMVLNSALTEVSEDSTTGEELLLSEGSVGKNKSSACRRKREFIPDEKKDAMYWEKRRKNNEAAKRSREKRRLNDLVLENKLIALGEENATLKAELLSLKLKFGLISSTAYAQEIQKLSNSTAVYFQDYQTSKSNVSSFVDEHEPSMVSSSCISVIKHSPQSSLSDVSEVSSVEHTQESSVQGSCRSPENKFQIIKQEPMELESYTREPRDDRGSYTASIYQNYMGNSFSGYSHSPPLLQVNRSSSNSPRTSETDDGVVGKSSDGEDEQQVPKGPIHSPVELKHVHATVVKVPEVNSSALPHKLRIKAKAMQIKVEAFDNEFEATQKLSSPIDMTSKRHFELEKHSAPSMVHSSLTPFSVQVTNIQDWSLKSEHWHQKELSGKTQNSFKTGVVEMKDSGYKVSDPENLYLKQGIANLSAEVVSLKRLIATQPISASDSG
# B6: CAMTA2, O94983 (protein)
# chain: MNTKDTTEVAENSHHLKIFLPKKLLECLPRCPLLPPERLRWNTNEEIASYLITFEKHDEWLSCAPKTRPQNGSIILYNRKKVKYRKDGYLWKKRKDGKTTREDHMKLKVQGMECLYGCYVHSSIVPTFHRRCYWLLQNPDIVLVHYLNVPALEDCGKGCSPIFCSISSDRREWLKWSREELLGQLKPMFHGIKWSCGNGTEEFSVEHLVQQILDTHPTKPAPRTHACLCSGGLGSGSLTHKCSSTKHRIISPKVEPRALTLTSIPHAHPPEPPPLIAPLPPELPKAHTSPSSSSSSSSSGFAEPLEIRPSPPTSRGGSSRGGTAILLLTGLEQRAGGLTPTRHLAPQADPRPSMSLAVVVGTEPSAPPAPPSPAFDPDRFLNSPQRGQTYGGGQGVSPDFPEAEAAHTPCSALEPAAALEPQAAARGPPPQSVAGGRRGNCFFIQDDDSGEELKGHGAAPPIPSPPPSPPPSPAPLEPSSRVGRGEALFGGPVGASELEPFSLSSFPDLMGELISDEAPSIPAPTPQLSPALSTITDFSPEWSYPEGGVKVLITGPWTEAAEHYSCVFDHIAVPASLVQPGVLRCYCPAHEVGLVSLQVAGREGPLSASVLFEYRARRFLSLPSTQLDWLSLDDNQFRMSILERLEQMEKRMAEIAAAGQVPCQGPDAPPVQDEGQGPGFEARVVVLVESMIPRSTWKGPERLAHGSPFRGMSLLHLAAAQGYARLIETLSQWRSVETGSLDLEQEVDPLNVDHFSCTPLMWACALGHLEAAVLLFRWNRQALSIPDSLGRLPLSVAHSRGHVRLARCLEELQRQEPSVEPPFALSPPSSSPDTGLSSVSSPSELSDGTFSVTSAYSSAPDGSPPPAPLPASEMTMEDMAPGQLSSGVPEAPLLLMDYEATNSKGPLSSLPALPPASDDGAAPEDADSPQAVDVIPVDMISLAKQIIEATPERIKREDFVGLPEAGASMRERTGAVGLSETMSWLASYLENVDHFPSSTPPSELPFERGRLAVPSAPSWAEFLSASTSGKMESDFALLTLSDHEQRELYEAARVIQTAFRKYKGRRLKEQQEVAAAVIQRCYRKYKQLTWIALKFALYKKMTQAAILIQSKFRSYYEQKRFQQSRRAAVLIQQHYRSYRRRPGPPHRTSATLPARNKGSFLTKKQDQAARKIMRFLRRCRHRMRELKQNQELEGLPQPGLAT
# B7: AATF, Q9NY61 (protein)
# chain: MAGPQPLALQLEQLLNPRPSEADPEADPEEATAARVIDRFDEGEDGEGDFLVVGSIRKLASASLLDTDKRYCGKTTSRKAWNEDHWEQTLPGSSDEEISDEEGSGDEDSEGLGLEEYDEDDLGAAEEQECGDHRESKKSRSHSAKTPGFSVQSISDFEKFTKGMDDLGSSEEEEDEESGMEEGDDAEDSQGESEEDRAGDRNSEDDGVVMTFSSVKVSEEVEKGRAVKNQIALWDQLLEGRIKLQKALLTTNQLPQPDVFPLFKDKGGPEFSSALKNSHKALKALLRSLVGLQEELLFQYPDTRYLVDGTKPNAGSEEISSEDDELVEEKKQQRRRVPAKRKLEMEDYPSFMAKRFADFTVYRNRTLQKWHDKTKLASGKLGKGFGAFERSILTQIDHILMDKERLLRRTQTKRSVYRVLGKPEPAAQPVPESLPGEPEILPQAPANAHLKDLDEEIFDDDDFYHQLLRELIERKTSSLDPNDQVAMGRQWLAIQKLRSKIHKKVDRKASKGRKLRFHVLSKLLSFMAPIDHTTMNDDARTELYRSLFGQLHPPDEGHGD
# B8: CREBRF, Q8IUR6 (protein)
# chain: MPQPSVSGMDPPFGDAFRSHTFSEQTLMSTDLLANSSDPDFMYELDREMNYQQNPRDNFLSLEDCKDIENLESFTDVLDNEGALTSNWEQWDTYCEDLTKYTKLTSCDIWGTKEVDYLGLDDFSSPYQDEEVISKTPTLAQLNSEDSQSVSDSLYYPDSLFSVKQNPLPSSFPGKKITSRAAAPVCSSKTLQAEVPLSDCVQKASKPTSSTQIMVKTNMYHNEKVNFHVECKDYVKKAKVKINPVQQSRPLLSQIHTDAAKENTCYCGAVAKRQEKKGMEPLQGHATPALPFKETQELLLSPLPQEGPGSLAAGESSSLSASTSVSDSSQKKEEHNYSLFVSDNLGEQPTKCSPEEDEEDEEDVDDEDHDEGFGSEHELSENEEEEEEEEDYEDDKDDDISDTFSEPGYENDSVEDLKEVTSISSRKRGKRRYFWEYSEQLTPSQQERMLRPSEWNRDTLPSNMYQKNGLHHGKYAVKKSRRTDVEDLTPNPKKLLQIGNELRKLNKVISDLTPVSELPLTARPRSRKEKNKLASRACRLKKKAQYEANKVKLWGLNTEYDNLLFVINSIKQEIVNRVQNPRDERGPNMGQKLEILIKDTLGLPVAGQTSEFVNQVLEKTAEGNPTGGLVGLRIPTSKV
# Molecular target: nucleoprotein N of Crimean-Congo hemorrhagic fever virus
# Experiment: AlphaScreen luminescence signal relative to Venus negative control (fold); higher = stronger binding to CCHFV N
# Protocol: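 AlphaScreen binding of cell-free made, FLAG-GST-tagged human transcription factors and regulators (crude translation products) to biotinylated N protein; signal as fold of the FLAG-GST-Venus control. One pass.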
row,Binder,AlphaScreen luminescence signal
1,B1,6.56
2,B2,9.44
3,B3,2.19
4,B4,2.33
5,B5,3.02
6,B6,2.47
7,B7,1.72
8,B8,2.42
